Laboratory results from the supplement of paper PMC4604168 (melanoma cell lines).
This is one part of the list. Repeats are few or missing, and single values can be far off.

Legend:
Assay in all cases: cell count relative to DMSO control; melanoma cells; higher = more viable cells
Details in all cases: library dose: low library concentration; 72 h
[1] = tested on: MZ2-MEL
[2] = tested on: MeWo
[3] = tested on: RPMI7951
[4] = tested on: RVH-421
[5] = tested on: SkMel28
[6] = tested on: SkMel2
[7] = tested on: SkMel30
[8] = tested on: SkMel5
[9] = tested on: UACC257
[10] = tested on: UACC62
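Also: cell number obtained by counting DAPI-stained nuclei in high-throughput microscope images with image analysis software, screen run in 1,536-well plates.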

SMILES | cell count [1] [%] | cell count [2] [%] | cell count [3] [%] | cell count [4] [%] | cell count [5] [%] | cell count [6] [%] | cell count [7] [%] | cell count [8] [%] | cell count [9] [%] | cell count [10] [%]
C[C@@H](Oc1cc(-c2cnn(C3CCNCC3)c2)cnc1N)c1c(Cl)ccc(F)c1Cl [Crizotinib] + COc1cc2ncnc(Nc3ccc(Oc4ccccc4)cc3)c2cc1OC [SrcI1] (first compound 0.2 µM, partner dose 2 µM) | 91.7 | 89 | 93 | 139 | 83.3 | 99.4 | 101 | 101 | 86.9 | 110
CNC(=O)c1cc(Oc2ccc(NC(=O)Nc3ccc(Cl)c(C(F)(F)F)c3)cc2)ccn1 [sorafenib] + C=CCn1c(=O)c2cnc(Nc3ccc(N4CCN(C)CC4)cc3)nc2n1-c1cccc(C(C)(C)O)n1 [MK1775] (first compound 0.4 µM, partner dose 0.02 µM) | 107 | 104 | 90.4 | 79 | 82.4 | 92.3 | 105 | 85.6 | 110 | 89
CNC(=O)c1cc(Oc2ccc(NC(=O)Nc3ccc(Cl)c(C(F)(F)F)c3)cc2)ccn1 [sorafenib] + COc1ccc2c(c1)CCC1C2CCC2(C)C(NCCCCCCN3C(=O)C=CC3=O)CCC12 [U73122] (first compound 0.4 µM, partner dose 0.4 µM) | 91.2 | 112 | 75.1 | 92.5 | 106 | 99.2 | 77.2 | 80.8 | 107 | 85.7
C[C@@H](Oc1cc(-c2cnn(C3CCNCC3)c2)cnc1N)c1c(Cl)ccc(F)c1Cl [Crizotinib] + COc1cc(N2CCC(N3CCN(C)CC3)CC2)ccc1Nc1ncc(Cl)c(Nc2ccccc2S(=O)(=O)C(C)C)n1 [NVP-TAE684] (first compound 0.2 µM, partner dose 0.08 µM) | 111 | 83.9 | 93.2 | 108 | 81.1 | 92.6 | 102 | 79.3 | 68.3 | 92.6
CNC(=O)c1cc(Oc2ccc(NC(=O)Nc3ccc(Cl)c(C(F)(F)F)c3)cc2)ccn1 [sorafenib] + Cc1cc(N2CCOCC2)cc2[nH]c(-c3c(NC[C@@H](O)c4cccc(Cl)c4)cc[nH]c3=O)nc12 [BMS536924] (first compound 0.4 µM, partner dose 0.2 µM) | 95.1 | 92.2 | 98.8 | 85.6 | 85.9 | 91.3 | 80.5 | 85.6 | 77.5 | 103
C=CCNC1=C2C[C@@H](C)C[C@H](OC)[C@H](O)[C@@H](C)/C=C(\C)[C@H](OC(N)=O)[C@@H](OC)/C=C\C=C(/C)C(=O)NC(=CC1=O)C2=O [Tanespimycin] + O=S(=O)(c1ccccc1)N(CC(F)(F)F)c1ccc(C(O)(C(F)(F)F)C(F)(F)F)cc1 [T0901317] (first compound 0.002 µM, partner dose 1.4 µM) | 97.9 | 86.3 | 99.6 | 98.3 | 105 | 84.1 | 83.7 | 85 | 90.9 | 86.5
CNC(=O)c1cc(Oc2ccc(NC(=O)Nc3ccc(Cl)c(C(F)(F)F)c3)cc2)ccn1 [sorafenib] + O=C(CCCCCCC(=O)Nc1ccccc1)NO [vorinostat] (first compound 0.4 µM, partner dose 0.08 µM) | 104 | 91.8 | 101 | 90.7 | 89.6 | 93.8 | 99.4 | 97 | 78.9 | 87.6
CN1CCN(c2ccc3nc(-c4c(N)c5c(F)cccc5[nH]c4=O)[nH]c3c2)CC1 [Dovitinib] + C=CCn1c(=O)c2cnc(Nc3ccc(N4CCN(C)CC4)cc3)nc2n1-c1cccc(C(C)(C)O)n1 [MK1775] (first compound 0.1 µM, partner dose 0.02 µM) | 84 | 84.5 | 118 | 89.3 | 94.5 | 95 | 96.8 | 85.8 | 85.9 | 75.4
C[C@@H](Oc1cc(-c2cnn(C3CCNCC3)c2)cnc1N)c1c(Cl)ccc(F)c1Cl [Crizotinib] + CCN(CC)CCCCNc1ncc2cc(-c3cc(OC)cc(OC)c3)c(NC(=O)NC(C)(C)C)nc2n1 [PD173074] (first compound 0.2 µM, partner dose 0.1 µM) | 101 | 103 | 101 | 122 | 99 | 102 | 113 | 91.4 | 78.7 | 82.4
CN1CCN(c2ccc3nc(-c4c(N)c5c(F)cccc5[nH]c4=O)[nH]c3c2)CC1 [Dovitinib] + COc1ccc(COc2ccc(Cc3cnc(N)nc3N)cc2OC)cc1 [GW2580] (first compound 0.1 µM, partner dose 1 µM) | 83.6 | 99 | 111 | 109 | 87.5 | 111 | 72.4 | 84.3 | 93.5 | 97.4
CS(=O)(=O)CCNCc1ccc(-c2ccc3ncnc(Nc4ccc(OCc5cccc(F)c5)c(Cl)c4)c3c2)o1 [lapatinib] + O=C(O)c1ccc(-c2c[nH]c3ncc(-c4ccccc4)cc23)cc1C1CCCC1 [GSK650394] (first compound 0.8 µM, partner dose 0.16 µM) | 91.4 | 94.9 | 128 | 114 | 82.2 | 101 | 100 | 95.8 | 97.2 | 86.2
CN1CCN(c2ccc3nc(-c4c(N)c5c(F)cccc5[nH]c4=O)[nH]c3c2)CC1 [Dovitinib] + Cc1cc(N2CCOCC2)cc2[nH]c(-c3c(NC[C@@H](O)c4cccc(Cl)c4)cc[nH]c3=O)nc12 [BMS536924] (first compound 0.1 µM, partner dose 0.2 µM) | 81.1 | 78.4 | 112 | 94.9 | 104 | 88.5 | 75.5 | 84.3 | 71.4 | 81.9
CS(=O)(=O)CCNCc1ccc(-c2ccc3ncnc(Nc4ccc(OCc5cccc(F)c5)c(Cl)c4)c3c2)o1 [lapatinib] + COc1ccc2c(c1)CCC1C2CCC2(C)C(NCCCCCCN3C(=O)C=CC3=O)CCC12 [U73122] (first compound 0.8 µM, partner dose 0.4 µM) | 87.8 | 87.9 | 90 | 111 | 90.9 | 93.4 | 84.2 | 93.9 | 88.6 | 91.9
C=CCNC1=C2C[C@@H](C)C[C@H](OC)[C@H](O)[C@@H](C)/C=C(\C)[C@H](OC(N)=O)[C@@H](OC)/C=C\C=C(/C)C(=O)NC(=CC1=O)C2=O [Tanespimycin] + c1cc(-c2cnn3cc(-c4ccc(OCCN5CCCCC5)cc4)cnc23)ccn1 [Dorsomorphin] (first compound 0.002 µM, partner dose 0.4 µM) | 106 | 104 | 94.4 | 162 | 111 | 107 | 114 | 97.3 | 87.7 | 97.6
CN1CCN(c2ccc3nc(-c4c(N)c5c(F)cccc5[nH]c4=O)[nH]c3c2)CC1 [Dovitinib] + O=C(O)c1ccc(-c2c[nH]c3ncc(-c4ccccc4)cc23)cc1C1CCCC1 [GSK650394] (first compound 0.1 µM, partner dose 0.16 µM) | 82 | 73.9 | 104 | 113 | 94.8 | 99.3 | 67.3 | 85.4 | 94.9 | 82.4
C=CCNC1=C2C[C@@H](C)C[C@H](OC)[C@H](O)[C@@H](C)/C=C(\C)[C@H](OC(N)=O)[C@@H](OC)/C=C\C=C(/C)C(=O)NC(=CC1=O)C2=O [Tanespimycin] + O=C(Nc1ccccc1)c1cc([N+](=O)[O-])ccc1Cl [GW9662] (first compound 0.002 µM, partner dose 2 µM) | 95.2 | 95.7 | 106 | 110 | 86.2 | 107 | 112 | 107 | 85.4 | 98.1
CN1CCN(c2ccc3nc(-c4c(N)c5c(F)cccc5[nH]c4=O)[nH]c3c2)CC1 [Dovitinib] + O=c1cc(-c2cccc3c2Sc2ccccc2S3)oc(N2CCOCC2)c1 [KU55933] (first compound 0.1 µM, partner dose 1 µM) | 105 | 101 | 123 | 102 | 88.6 | 110 | 94.8 | 98.5 | 94.7 | 79.9
C[C@@H](Oc1cc(-c2cnn(C3CCNCC3)c2)cnc1N)c1c(Cl)ccc(F)c1Cl [Crizotinib] + C[C@@H]1CCN(C(=O)CC#N)C[C@@H]1N(C)c1ncnc2[nH]ccc12 [CP690550] (first compound 0.2 µM, partner dose 1 µM) | 108 | 109 | 105 | 87.8 | 106 | 95.8 | 117 | 117 | 94.4 | 97
C=CCNC1=C2C[C@@H](C)C[C@H](OC)[C@H](O)[C@@H](C)/C=C(\C)[C@H](OC(N)=O)[C@@H](OC)/C=C\C=C(/C)C(=O)NC(=CC1=O)C2=O [Tanespimycin] + O=C(O)C(=O)Nc1sc2c(c1C(=O)O)CCNC2 [TCS401] (first compound 0.002 µM, partner dose 1.66667 µM) | 103 | 94.9 | 86.9 | 191 | 88.1 | 96.3 | 96.3 | 98.5 | 95.7 | 91.6
CNC(=O)c1cc(Oc2ccc(NC(=O)Nc3ccc(Cl)c(C(F)(F)F)c3)cc2)ccn1 [sorafenib] + Cn1cncc1[C@@](N)(c1ccc(Cl)cc1)c1ccc2c(c1)c(-c1cccc(Cl)c1)cc(=O)n2C [tipifarnib] (first compound 0.4 µM, partner dose 0.01 µM) | 102 | 91.4 | 100 | 88.8 | 89.5 | 80.7 | 99.6 | 100 | 87.1 | 81.2
